Results from PubChem BioAssay AID1508642 (National Center for Advancing Translational Sciences (NCATS), 2021).
Hit rate of the full screen: of about 43,000 compounds, about 200 (0.47%) were called active. Not shown: some 12% with an inconclusive outcome. Calls follow the shape of the dose curve; as a rule, active = well fitted cell-killing curve with a large enough effect; inconclusive = small, poorly fitted or top-dose-only effect, or effect the other way; inactive = flat fitted curve, though single readings scatter. The list shows a part of the results.

Experiment: Cell viability qHTS assay in S16 Pmp22-F2sN cells; also: nearly all actives have a fitted effect of over 65% in size
Settings: S16 Pmp22-F2sN Schwann cells (luciferase reporters placed in the Pmp22 gene) viability, CellTiter-Glo, 24 h; series mostly up to 57.5 µM; activity change, negative = cytotoxicity: at the top concentration
Summary of the method: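 S16 Schwann cells carrying the Pmp22-F2sN reporter, seeded in 1536-well format, were exposed to library compounds for 24 h at 37C. Viability was read as CellTiter-Glo luminescence after 15 min at room temperature.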
% is scaled to controls: 0 for no effect and ±100 for the full control effect.

Row | SMILES | activity change, negative = cytotoxicity
1 | COc1cc(/C=C(\C#N)C(=O)NCC2CCCO2)ccc1O (stereo not given) | inactive: 4.86%
2 | CCc1ccccc1NC(=O)CSc1nc(-c2cccc(Cl)c2)nc2c1Cc1c(CO)cnc(C)c1O2 | inactive: -0.291%
3 | O=C(Nc1cc(-c2nc3ccccc3o2)ccc1Cl)c1sc2c([N+](=O)[O-])cccc2c1Cl | inactive: -1.74%
4 | COc1ccc(-c2nc(SCC(=O)NC3CCCC3)c(-c3ccc(F)cc3)[nH]2)cc1 | inactive: -22.1%
5 | Cc1ccccc1C(=O)Nc1nnc(S(=O)(=O)N(C)Cc2ccccc2)s1 | inactive: -7.1%
6 | COc1ccc(-n2c(-c3ccc(C)cc3)cc3c2CC(C)(C)CC3=O)cc1Cl | inactive: -29.6%
7 | CC1CCN(C(=O)Cn2c(=O)n(CC3CCC(C(=O)NC(C)C)CC3)c(=O)c3sccc32)CC1 (stereo not given) | inactive: 1.08%
8 | O=C(NCCCN1CCCCC1)c1sc2ncccc2c1-n1cccc1 | inactive: 3.9%
9 | COc1ccc(Cn2c(CCC(=O)Nc3cc(OC)c(OC)c(OC)c3)nc3cccnc32)cc1 | inactive: -12.8%
10 | O=C(CSc1nccn1Cc1ccccc1)NCc1ccco1 | inactive: 4.23%
11 | CCOc1ccccc1NC(=O)CN1C(=O)COc2ccc(S(=O)(=O)N3CCOCC3)cc21 | inactive: -0.945%
12 | CCC(CC)C(=O)OCc1cc(=O)n2nc(C3CC3)sc2n1 | inactive: -5.89%
13 | O=C(CCCn1c(=O)c2cccn2c2ccccc21)Nc1cc(C(F)(F)F)ccc1Cl | inactive: -0.0768%
14 | Cn1cc(-c2cc3n(n2)CCC(=O)N3CCCC(=O)NCc2ccc(Cl)cc2)c2ccccc21 | inactive: 12.6%
15 | CC1C(=O)Nc2ccc(S(=O)(=O)N3CCCCC3)cc2NC1=O (stereo not given) | inactive: -14%
16 | Cc1cc(C)n(C(C)CC(=O)Nc2cccc(C(F)(F)F)c2)n1 (stereo not given) | inactive: 1.78%
17 | CCN(CC)c1ccc(NC(=O)C2CCN(c3nnc(-n4cccc4)s3)CC2)c(C)c1 | inactive: -20%
18 | O=C(NCc1cccs1)c1ccc2c(=O)n3nc(Nc4ccccc4)sc3nc2c1 | inactive: 4.06%
19 | Cc1ccc2c(c1Br)C(O)(CC(=O)c1ccc(F)cc1)C(=O)N2 (stereo not given) | inactive: 0.744%
20 | O=c1c2sc3ccccc3c2n(Cc2cccc(F)c2)c(=O)n1Cc1ccccc1 | inactive: 6.44%
21 | CCOC(=O)Cn1c(=O)n(CC2CCCO2)c2nc(-c3ccccc3OC)nc(C(N)=O)c21 (stereo not given) | inactive: -11.8%
22 | O=C(NC1CC(=O)N(c2ccc(F)cc2)C1)c1ccc(S(=O)(=O)N2CCCCC2)cc1 (stereo not given) | inactive: 0.614%
23 | Cc1c(Cl)cccc1NC(=O)CC1Oc2ccccc2NC1=O (stereo not given) | inactive: 4.78%
24 | CCOc1ccccc1C(=O)N(Cc1ccco1)Cc1ccco1 | inactive: -6.49%

Row | SMILES | activity change, negative = cytotoxicity
25 | COc1ccccc1CNC(=O)C1CCCN(S(=O)(=O)c2ccc3c(c2)oc(=O)n3C)C1 (stereo not given) | inactive: -0.862%
26 | COc1ccc(-c2cc(C(=O)Nc3c(C(=O)c4ccc(C)cc4)oc4ccccc34)no2)cc1 | inactive: 2.05%
27 | O=C(c1ccc2c(c1)N(Cc1ccccc1F)C(=O)c1ccccc1S2(=O)=O)N1CCC(Cc2ccccc2)CC1 | inactive: 27.2%
28 | Cc1cccc2sc(N(Cc3cccnc3)C(=O)CCc3ccccc3)nc12 | inactive: -17.3%
29 | Cc1ccc(-n2c(=O)c3oc4ccccc4c3n(CC(=O)Nc3ccc(F)c(Cl)c3)c2=O)cc1C | inactive: 15%
30 | N#Cc1ccccc1NC(=O)C(=O)NCC(c1ccc2c(c1)OCO2)N1CCOCC1 (stereo not given) | inactive: -0.757%
31 | O=C(CS(=O)(=O)c1cccc2nsnc12)Nc1ccc(F)cc1F | inactive: 3.46%
32 | CCC(C)NC(=O)Cc1ccc(NC(=O)N2CCCCc3ccccc32)cc1 (stereo not given) | inactive: 3.92%
33 | Cc1cc(C)cc(OCc2cc(=O)n3c4c(sc3n2)CCCC4)c1 | inactive: 0.755%
34 | O=C(Nc1ccccc1F)C1CCN(S(=O)(=O)c2ccc3c(c2)CCCN3C(=O)C2CCC2)CC1 | inactive: 3.09%
35 | CCCCN(C)C(=O)c1ccc2c(c1)N(Cc1ccc(F)cc1)C(=O)c1ccccc1S2(=O)=O | inactive: -6.81%
36 | CC(C)CCNC(=O)c1c2c(nc3ccccc13)C(=O)N(C1CCCCC1)C2 | inactive: 9.84%
37 | CC(=O)N1CCOc2cc(S(=O)(=O)Nc3c(C)cccc3C(C)C)c(Cl)cc21 | inactive: -7.56%
38 | CCCCN(Cc1ccccc1)S(=O)(=O)c1cc(Br)cc2c1N(C(C)=O)CC2 | inactive: 0.248%
39 | O=C(Nc1ccc(C(=O)OCc2cc(=O)n3nc(C4CC4)sc3n2)cc1)c1cccc(Cl)c1 | inactive: 18.4%
40 | CCOC(=O)CCCN1C(=O)CCn2nc(-c3cn(C)c4ccccc34)cc21 | inactive: -1.04%
41 | CCOc1ccc(CCNC(=O)c2cccc(-n3c(C)nc4cccnc43)c2C)cc1 | inactive: 3.54%
42 | CCCCCn1c(=O)[nH]c2cc(C(=O)N3CCN(c4cccc(OC)c4)CC3)ccc2c1=O | inactive: -4.86%
43 | COc1ccc(-c2nc3c(c(SCC(=O)Nc4ccccc4OC)n2)Cc2cccc(C)c2O3)cc1 | inactive: 10.4%
44 | CCOCCCNC(=O)c1cc(=O)[nH]c2ccc(S(=O)(=O)N3CCCC3)cc12 | inactive: 4.23%
45 | CCOc1ccc(CNC(=O)c2cccn2-c2nnc(N3CCCCC3)s2)cc1OC | inactive: 26.2%
46 | CCCCC(=O)Nc1c(C(=O)N2CCN(c3ccccc3)CC2)oc2ccccc12 | inactive: 4.18%
47 | CCCSc1ncc(Cl)c(C(=O)Nc2scc(-c3ccc(C)cc3)c2C(=O)OCC)n1 | inactive: 12.4%
48 | CCc1cccc(C)c1NC(=O)C1CCN(S(=O)(=O)c2cccc3nonc23)CC1 | inactive: 15.6%

Row | SMILES | activity change, negative = cytotoxicity
49 | O=C1CC(c2ccc(Cl)cc2)c2cc3c(cc2N1)OCCO3 (stereo not given) | inactive: -7.32%
50 | CC1(C(=O)NC2CCCCC2)Cc2ccccc2C(=O)N1Cc1ccc(F)cc1 (stereo not given) | inactive: 9.47%
51 | Cc1ccc(S(=O)(=O)c2nc(-c3ccco3)oc2SCc2ccc(F)cc2)cc1 | inactive: -27.7%
52 | Cc1ccc(NC(=O)C2CCCN2S(=O)(=O)c2ccc3c(c2)C(C)(C)C(=O)N3C)cc1 (stereo not given) | inactive: -0.995%
53 | COc1ccc(-c2cc(C)no2)cc1S(=O)(=O)NC1CCC(C)CC1 (stereo not given) | inactive: -14.6%
54 | CCOc1ccc(NC(=O)c2cc(C)nc3c2c(C)nn3-c2cccc(F)c2)cc1 | inactive: 12.5%
55 | O=C(NCCS(=O)(=O)N1CCN(c2ccccc2F)CC1)C1CC(=O)N(c2ccccc2)C1 (stereo not given) | inactive: 1.74%
56 | CCOc1ccc(CNC(=O)c2cnc3sc(N(CC)CC)nn3c2=O)cc1 | inactive: -0.417%
57 | COc1cccc(NC(=O)c2c(N3CCCC3=O)c3cc(C)ccc3n2C)c1 | inactive: 15%
58 | CCOc1ccc(-n2ccnc2SCC(=O)Nc2ccc3c(c2)OCO3)cc1 | inactive: -11.9%
59 | O=C(CSc1nc2ccccc2nc1Cc1ccccc1)Nc1ccccc1C(F)(F)F | inactive: 4.64%
60 | Cc1ccc(Sc2c(C)nn(C(=O)c3ccc(Br)cc3)c2C)cc1 | inactive: -1.6%
61 | COc1ccc(Nc2ncnc3onc(C)c23)c(OC)c1 | inactive: -2.03%
62 | COc1ccc(OC)c(NC(=O)Cn2c(=O)n(Cc3nc(C)no3)c(=O)c3ccccc32)c1 | inactive: -1.96%
63 | COc1ccc(Cl)cc1NC(=O)NCCc1c(C)nn(C)c1C | inactive: 0.345%
64 | CCc1cccc(C)c1NC(=O)c1ccc2c(c1)CCN2S(=O)(=O)CC | inactive: 2.74%
65 | O=C(CSC1=Nc2ccccc2N=C(c2ccc(F)cc2)C1)Nc1ccc(Cl)cc1 | inactive: 15.2%
66 | COc1ccc(N2CCN(C(=O)C(C)n3c(=O)cc(C(F)(F)F)c4c(C)nn(C)c43)CC2)cc1 (stereo not given) | inactive: 17.3%
67 | CCOC(=O)c1c(C)[nH]c(C)c1S(=O)(=O)NCC(=O)NCc1ccccc1Cl | inactive: -27.8%
68 | COc1cc(C(CC(=O)Nc2cc(C)ccn2)N2Cc3ccccc3C2=O)cc(OC)c1OC (stereo not given) | inactive: 1.44%
69 | CCN1C(=O)c2ccccc2S(=O)c2ccc(C(=O)N3CCN(c4ccccc4OC)CC3)cc21 (stereo not given) | inactive: 16.1%
70 | COc1cccc(CNC(=O)CCCCCn2c(=O)[nH]c3cc(OC)c(OC)cc3c2=O)c1 | inactive: -7.83%
71 | CCOc1ccccc1C(=O)Nc1ccc(S(=O)(=O)Nc2ncccn2)cc1 | inactive: -17.1%
72 | Cc1cccc(Cc2c(C)nc3nc(SCc4ccccc4F)nn3c2C)c1 | inactive: 14.1%

Row | SMILES | activity change, negative = cytotoxicity
73 | Cc1cc2c(n1-c1ccc(C(=O)NCc3ccc(OC(C)C)cc3)cc1)CCCC2 | inactive: -18.6%
74 | COc1ccccc1NC(=O)CSc1oc(-c2ccccc2)nc1S(=O)(=O)c1ccccc1 | inactive: -25.4%
75 | COc1ccc2c(c1)c1c(c(=O)n(-c3cccc(C)c3)c(=O)n1CC(=O)NCC1CCCO1)n2C (stereo not given) | inactive: 3.9%
76 | COc1ccccc1CNC(=O)CCCn1c(=O)c2ccccc2n(Cc2ccccc2C#N)c1=O | inactive: -0.476%
77 | CC(C)c1cc(-c2nc(-c3ccc(Br)cc3)no2)n[nH]1 | inactive: -28.8%
78 | COc1ccc2[nH]c(=O)c(CN(C(=O)c3cccc(Cl)c3)c3cccc(C)c3)cc2c1 | inactive: -0.168%
79 | CCN1CCN(c2ncc3c(n2)CCN(Cc2ccc(OC)c(OC)c2)C3)CC1 | inactive: 8.96%
80 | CCCN1CCN(CCNC(=O)Nc2ccccc2OCC)CC1 | inactive: 10.2%
81 | Cc1cc2c(n1-c1ccc(C(=O)NCCc3ccccc3)cc1)CCC(C)C2 (stereo not given) | inactive: -3.63%
82 | CCCN(Cc1cccs1)C(=O)Nc1ccc(Br)cc1F | inactive: -18.5%
83 | Cc1cccc(NS(=O)(=O)c2ccc3c(c2)OCC(C(=O)N2CCCC2)O3)c1C (stereo not given) | inactive: 1.11%
84 | CCc1nn(CCCC(=O)NCc2cc(Br)ccc2OC)c(=O)c2cc3occc3n12 | inactive: -9.2%
85 | COc1cccc(C(=O)Nc2cccc(C(=O)OCc3cc(=O)n4c5c(sc4n3)CCCC5)c2)c1 | inactive: -6.81%
86 | CCOc1ccc(NC(=O)c2cc3cc4cc(OC)ccc4nc3s2)cc1 | inactive: 0.675%
87 | Cc1ccc(S(=O)(=O)c2cn(CC(=O)Nc3ccc4c(c3)OCO4)c3ccccc3c2=O)cc1C | inactive: -0.312%
88 | COc1ccccc1-n1c(=O)c2c3c(sc2n(Cc2ccccc2F)c1=O)CN(C(C)=O)CC3 | inactive: 21.7%
89 | O=C(NCCS(=O)(=O)N1CCN(c2ccc(F)cc2)CC1)C1CC(=O)N(c2ccccc2)C1 (stereo not given) | inactive: 7.31%
90 | CCOC(=O)CSc1nc2c(sc3cccc(F)c32)c(=O)n1Cc1ccc(OC)cc1 | inactive: -0.353%
91 | COc1ccc2cc(CNc3ccc(C)cc3)c(=O)n(CC(=O)Nc3cccc(C(F)(F)F)c3)c2c1 | inactive: 11%
92 | Cc1ccc(-c2nnc(Nc3ccc(O)cc3)c3ccccc23)cc1S(=O)(=O)N1CCCCC1 | inactive: -5.58%
93 | O=c1c2cccnc2n(Cc2cccc(F)c2)c(=O)n1Cc1ccccc1Cl | inactive: 29.9%
94 | Cc1ccc(CN2C(=O)N(c3ccccc3)C(=O)C2CC(=O)Nc2ccccc2)cc1 (stereo not given) | inactive: 7.52%
95 | COc1cc(OC)c(N(C)C(=O)Cn2ncc3c(=O)oc4ccccc4c32)cc1Cl | inactive: -0.129%
